Assay results as given in the supplement of paper PMC11741623.
This is one part of the list. Interaction screen of human proteins with wild-type SARS-CoV-2 proteins by split-DHFR complementation in yeast, 1 µg/mL methotrexate. Value = fitness of the pair (three or more lineages) minus that of the viral protein without a human partner, on a scale set by negative (0) and fused positive (1) controls, mean of up to three cultures; higher = more likely to interact. Active = false discovery rate below 0.05 (one-sided t-test) in at least one culture. Nearly all pairs are not hits, and differences among them are mostly noise (correlation between cultures about 0.3); most hits were seen in one culture only. Human sequences are the Swiss-Prot entries looked up by gene name; the clone may be another isoform. NSP2 values were corrected by the authors for a growth advantage. Listed are human proteins with a hit and a random twelfth of the others.

B1: GMCL1, Q96IK5 (protein)
chain: MGSLSSRVLRQPRPALAQQAQGARAGGSARRPDTGDDAAGHGFCYCAGSHKRKRSSGSFCYCHPDSETDEDEEEGDEQQRLLNTPRRKKLKSTSKYIYQTLFLNGENSDIKICALGEEWSLHKIYLCQSGYFSSMFSGSWKESSMNIIELEIPDQNIDVEALQVAFGSLYRDDVLIKPSRVVAILAAACLLQLDGLIQQCGETMKETVNVKTVCGYYTSAGTYGLDSVKKKCLEWLLNNLMTHQNVELFKELSINVMKQLIGSSNLFVMQVEMDIYTALKKWMFLQLVPSWNGSLKQLLTETDVWFSKQRKDFEGMAFLETEQGKPFVSVFRHLRLQYIISDLASARIIEQDAVVPSEWLSSVYKQQWFAMLRAEQDSEVGPQEINKEELEGNSMRCGRKLAKDGEYCWRWTGFNFGFDLLVTYTNRYIIFKRNTLNQPCSGSVSLQPRRSIAFRLRLASFDSSGKLICSRTTGYQILTLEKDQEQVVMNLDSRLLIFPLYICCNFLYISPEKKN
B2: ZBTB6, Q15916 (protein)
chain: MAAESDVLHFQFEQQGDVVLQKMNLLRQQNLFCDVSIYINDTEFQGHKVILAACSTFMRDQFLLTQSKHVRITILQSAEVGRKLLLSCYTGALEVKRKELLKYLTAASYLQMVHIVEKCTEALSKYLEIDLSMKNNNQHTDLCQSSDPDVKNEDENSDKDCEIIEISEDSPVNIDFHVKEEESNALQSTVESLTSERKEMKSPELSTVDIGFKDNEICILHVESISTAGVENGQFSQPCTSSKASMYFSETQHSLINSTVESRVAEVPGNQDQGLFCENTEGSYGTVSEIQNLEEGYSLRHQCPRCPRGFLHVENYLRHLKMHKLFLCLQCGKTFTQKKNLNRHIRGHMGIRPFQCTVCLKTFTAKSTLQDHLNIHSGDRPYKCHCCDMDFKHKSALKKHLTSVHGRSSGEKLSRPDLKRQSLL
B3: TMEM59, Q9BXS4 (protein)
chain: MAAPKGSLWVRTQLGLPPLLLLTMALAGGSGTASAEAFDSVLGDTASCHRACQLTYPLHTYPKEEELYACQRGCRLFSICQFVDDGIDLNRTKLECESACTEAYSQSDEQYACHLGCQNQLPFAELRQEQLMSLMPKMHLLFPLTLVRSFWSDMMDSAQSFITSSWTFYLQADDGKIVIFQSKPEIQYAPHLEQEPTNLRESSLSKMSYLQMRNSQAHRNFLEDGESDGFLRCLSLNSGWILTTTLVLSVMVLLWICCATVATAVEQYVPSEKLSIYGDLEFMNEQKLNRYPASSLVVVRSKTEDHEEAGPLPTKVNLAHSEI
B4: AKR1C3, P42330 (protein)
chain: MDSKHQCVKLNDGHFMPVLGFGTYAPPEVPRSKALEVTKLAIEAGFRHIDSAHLYNNEEQVGLAIRSKIADGSVKREDIFYTSKLWSTFHRPELVRPALENSLKKAQLDYVDLYLIHSPMSLKPGEELSPTDENGKVIFDIVDLCTTWEAMEKCKDAGLAKSIGVSNFNRRQLEMILNKPGLKYKPVCNQVECHPYFNRSKLLDFCKSKDIVLVAYSALGSQRDKRWVDPNSPVLLEDPVLCALAKKHKRTPALIALRYQLQRGVVVLAKSYNEQRIRQNVQVFEFQLTAEDMKAIDGLDRNLHYFNSDSFASHPNYPYSDEY
B5: HSF2, Q03933 (protein)
chain: MKQSSNVPAFLSKLWTLVEETHTNEFITWSQNGQSFLVLDEQRFAKEILPKYFKHNNMASFVRQLNMYGFRKVVHIDSGIVKQERDGPVEFQHPYFKQGQDDLLENIKRKVSSSKPEENKIRQEDLTKIISSAQKVQIKQETIESRLSELKSENESLWKEVSELRAKHAQQQQVIRKIVQFIVTLVQNNQLVSLKRKRPLLLNTNGAQKKNLFQHIVKEPTDNHHHKVPHSRTEGLKPRERISDDIIIYDVTDDNADEENIPVIPETNEDVISDPSNCSQYPDIVIVEDDNEDEYAPVIQSGEQNEPARESLSSGSDGSSPLMSSAVQLNGSSSLTSEDPVTMMDSILNDNINLLGKVELLDYLDSIDCSLEDFQAMLSGRQFSIDPDLLVDLFTSSVQMNPTDYINNTKSENKGLETTKNNVVQPVSEEGRKSKSKPDKQLIQYTAFPLLAFLDGNPASSVEQASTTASSEVLSSVDKPIEVDELLDSSLDPEPTQSKLVRLEPLTEAEASEATLFYLCELAPAPLDSDMPLLDS

Each binder was assayed against SARS-CoV-2 NSP13 (assay: yeast fitness gain over the viral ORF with no human partner (scaled fitness); higher = more likely to interact).
Experimental: (§1)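 Split mouse DHFR complementation in pooled diploid yeast: human ORFeome clones carry one fragment and viral ORFs the other; barcoded lineages compete in 1 µg/mL methotrexate and fitness is read by barcode sequencing in up to three cultures.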
B1 was tested, and the yeast fitness gain was inactive: -0.0203. In the case of B2, the yeast fitness gain is reported as inactive: 0.0619.

What follows are binders tested against SARS-CoV-2 ORF10 in the same assay as above.
Experimental: as §1
B1 was tested, and the yeast fitness gain was inactive: 0.0186. B5 was tested, and the yeast fitness gain was inactive: 0.01.

The binders below were run against SARS-CoV-2 ORF3B in the same assay as above.
Experimental: as §1
For B1, the yeast fitness gain was inactive: 0.0286.

Each binder was assayed against SARS-CoV-2 ORF9Bwu (the 73-codon ORF) in the same assay as above.
Experimental: as §1
B1 was tested, and the yeast fitness gain was inactive: -0.235.

Each binder was assayed against SARS-CoV-2 NSP2 in the same assay as above.
Experimental: as §1
B2 was tested, and the yeast fitness gain was inactive: -0.438.

Each binder was assayed against SARS-CoV-2 NSP5 in the same assay as above.
Experimental: as §1
In the case of B2, the yeast fitness gain is reported as inactive: -0.141. For B5, the yeast fitness gain was inactive: -0.00666.

The binders below were run against SARS-CoV-2 ORF6 in the same assay as above.
Experimental: as §1
In the case of B2, the yeast fitness gain is reported as inactive: -0.00554.

The binders below were run against SARS-CoV-2 ORF7B in the same assay as above.
Experimental: as §1
In the case of B2, the yeast fitness gain is reported as inactive: -0.0782.

Each binder was assayed against SARS-CoV-2 ORF9B in the same assay as above.
Experimental: as §1
For B2, the yeast fitness gain was inactive: 0.0317.

What follows are binders tested against SARS-CoV-2 NSP14 in the same assay as above.
Experimental: as §1
In the case of B3, the yeast fitness gain is reported as inactive: 0.0802.

These binders were tested against SARS-CoV-2 NSP15 in the same assay as above.
Experimental: as §1
With B4 the yeast fitness gain was inactive: -0.0243. With B5 the yeast fitness gain was inactive: -0.223.

The binders below were run against SARS-CoV-2 NSP16 in the same assay as above.
Experimental: as §1
With B4 the yeast fitness gain was inactive: -0.0326.

What follows are binders tested against SARS-CoV-2 NSP4 in the same assay as above.
Experimental: as §1
For B4, the yeast fitness gain was inactive: -0.362.

Each binder was assayed against SARS-CoV-2 NSP6 in the same assay as above.
Experimental: as §1
For B4, the yeast fitness gain was inactive: 0.0396. With B5 the yeast fitness gain was inactive: 0.0222.

The binders below were run against SARS-CoV-2 NSP7 in the same assay as above.
Experimental: as §1
In the case of B4, the yeast fitness gain is reported as inactive: 0.0149. In the case of B5, the yeast fitness gain is reported as inactive: 0.056.

Each binder was assayed against SARS-CoV-2 NSP9 in the same assay as above.
Experimental: as §1
For B5, the yeast fitness gain was inactive: -0.0367.

What follows are binders tested against SARS-CoV-2 ORF8 in the same assay as above.
Experimental: as §1
In the case of B5, the yeast fitness gain is reported as inactive: -0.14.

These binders were tested against SARS-CoV-2 S in the same assay as above.
Experimental: as §1
With B5 the yeast fitness gain was inactive: -0.019.
